The results in this text go back to paper PMC11329725 (Nature Communications, 2024).

The target in the assay is T1, His6-HDOB1 (human BRCA2 helical domain and OB fold 1, residues 2479-2807) (human, UniProt P51587 2479-2807).
T1 sequence: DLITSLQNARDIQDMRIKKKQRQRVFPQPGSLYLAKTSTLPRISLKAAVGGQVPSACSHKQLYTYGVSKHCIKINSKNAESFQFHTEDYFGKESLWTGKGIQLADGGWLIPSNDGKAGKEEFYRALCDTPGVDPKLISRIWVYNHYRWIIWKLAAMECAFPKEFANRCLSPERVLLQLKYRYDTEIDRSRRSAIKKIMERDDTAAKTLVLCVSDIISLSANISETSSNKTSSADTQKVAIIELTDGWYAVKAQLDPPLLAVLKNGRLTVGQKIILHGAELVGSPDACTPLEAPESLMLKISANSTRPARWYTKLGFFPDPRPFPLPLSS
Nature of the assay: pull-down.

B1: GST-DSS1 […], co-expressed with His6-HDOB1 in E. coli (domain or fragment)
chain: not shown
As to B1, the binding result was “binds”.

B2: GST-DSS1 R57Q, co-expressed with His6-HDOB1 in E. coli (natural protein)
chain: not shown
Turning to B2, the binding result is on record as “binds”.
